Measurements from article PMC6919601, “Identification of Plasmodium dipeptidyl aminopeptidase allosteric inhibitors by high throughput screening” (PLoS ONE, 2019).
Out of some 110,000 compounds screened, about 230 (0.21%) showed an effect of 50% or more. The list shows a part of the results.

biological target: DPAP1 (Plasmodium falciparum, UniProt Q8IIJ9); experiment: primary screen, percent inhibition; read by cleavage of a fluorogenic dipeptide substrate; higher = more effect of the substance; design: species or system P. falciparum D10 trophozoite lysates; single well
Sequence (Q8IIJ9 whole entry, looked up): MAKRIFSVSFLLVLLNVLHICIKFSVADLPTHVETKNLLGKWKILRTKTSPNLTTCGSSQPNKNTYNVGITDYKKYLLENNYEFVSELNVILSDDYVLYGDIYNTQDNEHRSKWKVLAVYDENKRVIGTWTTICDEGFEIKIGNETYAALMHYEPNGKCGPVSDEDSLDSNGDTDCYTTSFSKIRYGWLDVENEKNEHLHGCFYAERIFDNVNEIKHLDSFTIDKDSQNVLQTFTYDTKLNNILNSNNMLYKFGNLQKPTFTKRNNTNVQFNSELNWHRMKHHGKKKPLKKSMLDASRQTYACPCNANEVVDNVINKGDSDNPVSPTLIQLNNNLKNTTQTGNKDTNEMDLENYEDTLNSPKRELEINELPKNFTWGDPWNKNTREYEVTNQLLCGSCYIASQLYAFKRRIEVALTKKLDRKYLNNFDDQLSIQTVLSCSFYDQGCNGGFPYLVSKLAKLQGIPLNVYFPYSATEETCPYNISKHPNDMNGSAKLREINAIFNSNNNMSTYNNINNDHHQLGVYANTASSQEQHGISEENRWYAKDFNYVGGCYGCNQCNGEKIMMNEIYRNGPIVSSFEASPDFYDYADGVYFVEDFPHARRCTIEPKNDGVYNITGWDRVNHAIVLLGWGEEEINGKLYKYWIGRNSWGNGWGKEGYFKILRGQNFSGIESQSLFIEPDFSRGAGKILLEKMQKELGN
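Note: 30 min substrate incubation versus DMSO and 10 µM JCP410 controls.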

| SMILES | % Inhibition @ 10 uM |
| --- | --- |
| CCCCC(=O)Nc1ccc(C(C)=O)cc1 | -1.46% |
| O=C(C1CCCN(c2ncnc3c2nc2n3CCCCC2)C1)N1CCN(Cc2ccccc2)CC1 (centres unmarked) | -2.96% |
| Cc1cc(Br)ccc1OCCCN1CCC(C)CC1 | 3.25% |
| COc1ccc(C2=NOC(C(=O)NC3CCCC3)C2)cc1 (centres unmarked) | 3.2% |
| COc1cccc(NC(=O)c2cnn3c(C(F)F)cc(-c4ccc(C)cc4)nc23)c1 | 2.42% |
| COC(=O)c1cc2nc(-c3ccccc3)cc(C)n2n1 | 4.57% |
| CCCc1[nH]nc2c1C(c1cccc(O)c1)C(C#N)=C(N)O2 (centres unmarked) | 5.89% |
| CCOC(=O)c1c(N)sc2c1CCN(CCc1ccccc1)C2 | 3.54% |
| NS(=O)(=O)c1ccc(CNC(=O)c2cc(-c3cccs3)nc3ccccc23)cc1 | 7.04% |
| Fc1cccc(F)c1CN1CCC(N2CCCCC2)CC1 | -8.55% |
| O=C1CC(c2ccco2)CC(=O)C1=CNCCN1CCN(C2OC(=O)c3ccccc32)CC1 (centres unmarked) | 2.24% |
| CCc1nc(O)c2c3c(sc2n1)CCCCC3 | 5.55% |
| Cc1ccc(C)c(NC(=O)c2cccs2)c1 | -8.2% |
| Clc1ccc(CNC2CCN(Cc3ccccc3)CC2)cc1Cl | -0.0908% |
| CCc1nn(CC(=O)N(CC)Cc2ccccc2)c(=O)c2cc3sccc3n12 | 1.8% |
| O=C1CC(c2ccccc2)CC(=O)C1=CNCc1cccc(C(F)(F)F)c1 (centres unmarked) | 9.01% |
| CSc1ccc(CCNC(=O)c2ccc3nc(N4CCCCC4)sc3c2)cc1 | -2.37% |
| CS(=O)(=O)N(Cc1ccc(Cl)cc1)c1ccc(C(=O)NC2CCCC2)cc1 | 2.95% |
| COc1ccc(-c2ccc(C3C(C#N)=C(N)OC4=C3C(=O)CC(C)(C)C4)o2)cc1 (centres unmarked) | 7.17% |
| Cc1ccnc(NC(=O)COc2cc(C)ccc2C)c1 | -7.23% |
| O=C(Nc1ccc(S(=O)(=O)Nc2ccc(F)cc2)cc1)C1CCCCC1 | 1.84% |
| Cc1cc2cc(CNC(=S)NCc3ccccc3)ccc2n1C | -7.53% |
| COc1ccc(NC(=O)COc2ccc(C)cc2Br)cc1 | -0.473% |
| O=C(O)c1c(CNCc2ccc3c(c2)OCO3)c2ccccc2n1Cc1cccc(F)c1 | -0.232% |
| Cc1ccc(C(=O)Nc2ccc3nc(SCC(=O)N4CCCC4)sc3c2)cc1 | -0.105% |
| [O-][n+]1c(CSc2nc3ccccc3[nH]2)c(CSc2nc3ccccc3[nH]2)[n+]([O-])c2ccccc21 | 8.06% |

| SMILES | % Inhibition @ 10 uM |
| --- | --- |
| Clc1ccccc1COc1cccc(CNCc2cccnc2)c1 | -0.992% |
| NC(=O)Cn1c(=O)n(CCCC(=O)NCc2ccccc2)c(=O)c2sccc21 | -2.47% |
| Cc1ccc2ccc3cc(C(=O)O)[nH]c3c2n1 | -3.42% |
| COc1cc2sc3ccccc3c(=O)c2cc1OC | 0.467% |
| Cc1cccc(C(=O)NC(=O)Nc2c(C)cc(C)nc2C)c1 | -2.63% |
| CC(C)(C)c1ccc(S(=O)(=O)N2CC(=O)Nc3ccccc32)cc1 | -2.8% |
| CCn1c(SCC(=O)Nc2nc(-c3ccccc3)c(C)s2)nnc1-c1ccccc1O | -3.53% |
| C=Cc1ccc(Cn2c(C(=O)O)c(CNCCCc3ccccc3)c3ccccc32)cc1 | 3.34% |
| O=C(CSc1ccc(Cl)cc1)Nc1cc(C(F)(F)F)ccc1N1CCOCC1 | -2.67% |
| Oc1nc(CN2CCCC2)nc2c1C1(CCCC1)Cc1ccccc1-2 | -0.687% |
| CC(C)CCn1c(SCc2ccccc2)nc2c1c(=O)[nH]c(=O)n2C | -4.12% |
| O=C1c2ccc(Br)cc2C(=O)N1c1ccccc1F | -10.9% |
| Oc1ncnn1Cc1ccccc1Br | -4.35% |
| Clc1ccc(N2CCN(CCc3ccccc3)CC2)cc1 | 0.0792% |
| O=C(CC(c1ccccc1)c1ccccc1O)NCCN1CCOCC1 (centres unmarked) | 0.778% |
| CC(=O)OC1(c2ccccc2)CCCCC1CN(C)C (centres unmarked) | -3.58% |
| O=C(Cn1nnc(-c2ccc(C(F)(F)F)cc2)n1)N1CCCC1 | 4.58% |
| COc1cc(CN2CCN(S(=O)(=O)c3ccc(Cl)cc3)CC2)cc(OC)c1O | 9.6% |
| Cc1cc(OCC(=O)Nc2ccccc2C(=O)Nc2ccccc2)ccc1Br | 3.48% |
| CCN1C(=O)N/C(=C/c2cn(CC(=O)Nc3cccc(C)c3)c3ccccc23)C1=O | 0.52% |
| Cc1ccc(NC(=O)c2ccc(Br)o2)cc1Cl | 1.88% |
| CCn1c(SCC(=O)NCc2ccc(F)cc2)nc2c(c1=O)SCC2 | 1.39% |
| COc1ccccc1C(=O)Nc1cc2ccccc2oc1=O | 7.49% |
| Cc1c(CNC(C)C)c(C(=O)O)c(C)n1Cc1ccccc1 | 1.41% |
| COc1ccc(-c2cc(C(F)(F)F)nc(SCC(=O)NCCCN3CCOCC3)n2)cc1 | -4.62% |
| CCOC(=O)c1cc(C)n(CC2CCC(C(=O)NCc3ccc4c(c3)OCO4)CC2)c1C (centres unmarked) | 3.31% |

| SMILES | % Inhibition @ 10 uM |
| --- | --- |
| CC(=O)N1c2ccccc2N=C2CC(c3ccco3)CC(O)=C2C1c1ccco1 (centres unmarked) | -1.84% |
| COc1ccccc1CNC(=O)Cc1noc2ccccc12 | 4.7% |
| CCCCOc1ccc(NC(=O)C2CCCCC2C(=O)O)cc1 (centres unmarked) | -10.9% |
| Cc1nnc(SCC(=O)NCc2cccc(Br)c2)c2nn(-c3ccccc3)c(C)c12 | 3.24% |
| O=[N+]([O-])c1ccc(N2CCN(CC3CC=CCC3)CC2)cc1 (centres unmarked) | -3.57% |
| Cc1ccc2c(c1)cc1c(=O)n(CC(=O)NCCCc3ccccc3)nc(C)n12 | 1.68% |
| CCOc1cc(C2c3c(-c4c(C)cc(C)cc4O)n[nH]c3C(=O)N2CCO)ccc1O (centres unmarked) | 0.00706% |
| CCOc1cccc2cc(C(=O)/C=C/c3ccc(C(=O)OC)cc3)c(=O)oc12 | 4.49% |
| O=C(NCc1ccccc1)c1cnn2c1NC(c1cccs1)CC2C(F)(F)F (centres unmarked) | 4.33% |
| O=[N+]([O-])c1ccc2[nH]c3ccccc3c2c1 | -1.76% |
| O=C1OC(c2ccc(Br)o2)=N/C1=C\c1cccc(Cl)c1Cl | -5.6% |
| O=C(NCc1ccccc1)/C(O)=C/C(=O)c1ccccc1 | 5.61% |
| Cc1ccc(Cl)cc1N(CC(=O)N1CCN(Cc2ccccc2)CC1)S(=O)(=O)c1ccccc1 | -1.24% |
| COc1cccc(/C=C(\C#N)C(N)=O)c1 | 1.91% |
| COc1cc(C(=O)Nc2ccc3c(c2)CCC3)ccc1OC(F)F | 2.4% |
| NC(=O)CC(NC(=O)c1ccco1)C(=O)O (centres unmarked) | -3.65% |
| Cc1c2cnn(CC(=O)NC(C)(C)C)c(=O)c2c(C)n1Cc1ccccc1 | 2.84% |
| C=C(C)C(=O)N1C(=O)OCC1c1ccccc1 (centres unmarked) | -0.988% |
| O=C1c2ccc(Br)cc2C(=O)N1c1ccc(Cl)cc1 | -2.6% |
| O=C(C(Cc1ccccc1)N1C(=O)C2C3c4ccccc4C(c4ccccc43)C2C1=O)N1CCOCC1 (centres unmarked) | 0.685% |
| Clc1cccc(Cl)c1/C=N/n1cnnc1 | 9.21% |
| O=C(Nc1ccc2c(c1)OCO2)c1ccccc1Cl | -5.84% |
| CNC(=O)C1CCN(c2nnc(C)c3c(C)n(-c4ccc(Cl)cc4)nc23)CC1 | 6% |
| CCn1cnc2sc(C(=O)NCC3COc4ccccc4O3)c(C)c2c1=O (centres unmarked) | -1.48% |
| COc1ccc(CCNC(=O)COc2ccc(S(=O)(=O)NC3CCCCC3)cc2)cc1 | -1.1% |
| COCCN(Cc1ccc(C)c(Br)c1)S(=O)(=O)c1cc(C(=O)OC)n(C)c1 | -2.83% |

| SMILES | % Inhibition @ 10 uM |
| --- | --- |
| c1ccc(-c2nonc2NCn2cnnn2)cc1 | 3.04% |
| CCOc1ccccc1C(=O)Nc1ccc(S(=O)(=O)Nc2nccs2)cc1 | -3.21% |
| Cn1nc(-c2ccc(OCC(=O)N3CCN(Cc4ccccc4)CC3)cc2)c2ccccc2c1=O | 0.315% |
| O=C(O)CCC(=O)c1cccc2ccccc12 | -0.744% |
| OCC1CCCCN1CC(O)COc1ccc(Cl)cc1 (centres unmarked) | 0.0792% |
| CCC(C)NC(=O)c1ccc(-c2nc(COc3ccccc3)c(C)o2)cc1 (centres unmarked) | 3.64% |
| COC(=O)C1=CN(C)C=C(C(=O)OC)C1c1cccc(OC)c1 | 0.238% |
| COc1cc(/C=C2/C(=N)N3OC(C)=CC3=NC2=O)cc(Cl)c1OCCCOc1ccccc1 | -1.43% |
| Cc1[nH]c2ccc(C(=O)NCCC3=CCCCC3)cc2c1C | -5.09% |
| O=Cc1cn(CC(=O)O)c2ccccc12 | 3.24% |
| O=C(c1ccccc1)c1ccccc1NC(=O)C12CC3CC(CC(C3)C1)C2 | 0.962% |
| Nc1ccc(-c2nc3ccccc3s2)c(O)c1 | 5.66% |
| Cc1nc2nc(NCc3ccc(C(C)C)cc3)nn2c(O)c1C | -4.19% |
| O=S(=O)(Nc1ccccc1-n1cccc1)c1ccc(F)cc1 | -0.425% |
| COc1ccc(C2CC(c3ccc(Cl)cc3)=NN2c2ccccc2)c(OC)c1 (centres unmarked) | -2.51% |
| CN(C)c1ccc(C2C=Cc3ccccc3N2C(=O)c2ccccc2)cc1 (centres unmarked) | 1.74% |
| CC1=C(C(=O)OCC2CCCCC2)C(c2ccc(Br)cc2)NC(=O)N1 (centres unmarked) | 1.27% |
| Cc1c(C(=O)O)cccc1N1C(=O)c2ccc(C(=O)O)cc2C1=O | -4.97% |
| CSc1cnc(Nc2nc(-c3ccc(Br)cc3)cs2)nc1 | -0.884% |
| Cc1cc(=O)oc2cc3occ(C(C)(C)C)c3cc12 | 0.558% |
| O=C(c1ccco1)N1CCN(C(=O)c2cnn(-c3ccc(Cl)cc3)c2C2CCNCC2)CC1 | 0.536% |
| CC(C)Oc1ccc(C(=O)C2=C(O)C(=O)N(CCN(C)C)C2c2cccnc2)cc1 (centres unmarked) | -0.564% |
| Cc1ccc(S(=O)(=O)Nc2ccccc2/N=C/c2ccccc2)cc1 | -1.62% |
